# Measurements as given in the supplement of paper PMC8728848.
# Some of the results follow.
# B1: Epa22 (Candida glabrata) (protein)
# chain: MGSSHHHHHHSSGLVPRGSHMKRALSSQNPFGYPIGCSPQSTNVIPGLTMELYSYPIVSGTPPNCYDASYVDPEYPRTGYLKRKMIGKSTGVTGSLNYKFSVEKACMVKYGNLPAGYNYNEPLTVSNFTMLLYGYFKPQTSGIHTFFVNADDLLYINFGAGNAFDCCKREDSKFKLGEYVAYDIWHVDSSKNKVSLNLEKDVYYPIRMFFNNIGKDSSLDLSFSVNGAVEHITDFSGYLYSVPDQPDACPAPIGYDTTCK
# Assays:
# Assay in all cases: glycan array binding signal (z-score within array); higher = stronger binding
# Settings in all cases: glycan notation: IUPAC condensed, linker removed
# [1] = target: Man(a1-2)Man(a1-3)[Man(a1-2)Man(a1-6)]Man(a1-6)[Man(a1-2)Man(a1-2)Man(a1-3)]Man
# Procedure, shortened: (§1)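 The binding signal is a Z-score computed within each array and averaged over linkers. Arrays of the same protein sequence at different concentrations or buffers were also averaged together. Data originate from 3228 arrays in the Consortium for Functional Glycomics database, kept only where the protein sequence was available.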
# [2] = target: Man(a1-2)Man(a1-3)[Man(a1-2)Man(a1-6)]Man(a1-6)[Man(a1-2)Man(a1-2)Man(a1-3)]Man(b1-4)GlcNAc(b1-4)GlcNAc
# Procedure, shortened: as §1
# [3] = target: Man(a1-2)Man(a1-3)[Man(a1-6)]Man(a1-6)[Man(a1-2)Man(a1-3)]Man(b1-4)GlcNAc(b1-4)GlcNAc
# Procedure, shortened: as §1
# [4] = target: Man(a1-2)Man(a1-6)[Man(a1-3)]Man(a1-6)[Man(a1-2)Man(a1-2)Man(a1-3)]Man
# Procedure, shortened: as §1
# [5] = target: Man(a1-2)Man(a1-6)[Man(a1-3)]Man(a1-6)[Man(a1-2)Man(a1-2)Man(a1-3)]Man(b1-4)GlcNAc(b1-4)GlcNAc
# Procedure, shortened: as §1
# Man(a1-3)[Man(a1-6)]Man = target: Man(a1-3)[Man(a1-6)]Man
# Procedure, shortened: as §1
# [6] = target: Man(a1-3)[Man(a1-6)]Man(a1-6)[Man(a1-2)Man(a1-3)]Man(b1-4)GlcNAc(b1-4)GlcNAc
# Procedure, shortened: as §1
# [7] = target: Man(a1-3)[Man(a1-6)]Man(a1-6)[Man(a1-3)]Man
# Procedure, shortened: as §1
# [8] = target: Man(a1-3)[Man(a1-6)]Man(a1-6)[Man(a1-3)]Man(b1-4)GlcNAc(b1-4)GlcNAc
# Procedure, shortened: as §1
# [9] = target: Man(a1-3)[Man(a1-6)]Man(b1-4)GlcNAc(b1-4)GlcNAc
# Procedure, shortened: as §1
# [10] = target: Man(a1-3)[Man(a1-6)]Man(b1-4)GlcNAc(b1-4)[Fuc(a1-6)]GlcNAc
# Procedure, shortened: as §1
# Man(a1-6)Man = target: Man(a1-6)Man
# Procedure, shortened: as §1
# Man(b1-4)GlcNAc = target: Man(b1-4)GlcNAc
# Procedure, shortened: as §1
# MurNAc(b1-4)GlcNAc = target: MurNAc(b1-4)GlcNAc
# Procedure, shortened: as §1
# Neu5Ac(a2-3)Gal = target: Neu5Ac(a2-3)Gal
# Procedure, shortened: as §1
# [11] = target: Neu5Ac(a2-3)Gal(b1-3)GalNAc
# Procedure, shortened: as §1
# [12] = target: Neu5Ac(a2-3)Gal(b1-3)GalNAc(b1-3)Gal(a1-4)Gal(b1-4)Glc
# Procedure, shortened: as §1
# [13] = target: Neu5Ac(a2-3)Gal(b1-3)GalNAc(b1-4)Gal(b1-4)Glc
# Procedure, shortened: as §1
# [14] = target: Neu5Ac(a2-3)Gal(b1-3)GalNAc(b1-4)[Neu5Ac(a2-3)]Gal(b1-4)Glc
# Procedure, shortened: as §1
# [15] = target: Neu5Ac(a2-3)Gal(b1-3)GalNAc(b1-4)[Neu5Ac(a2-8)Neu5Ac(a2-3)]Gal(b1-4)Glc
# Procedure, shortened: as §1
# [16] = target: Neu5Ac(a2-3)Gal(b1-3)GalNAc6S
# Procedure, shortened: as §1
# [17] = target: Neu5Ac(a2-3)Gal(b1-3)GlcNAc
# Procedure, shortened: as §1
# [18] = target: Neu5Ac(a2-3)Gal(b1-3)GlcNAc(b1-2)Man
# Procedure, shortened: as §1
# [19] = target: Neu5Ac(a2-3)Gal(b1-3)GlcNAc(b1-2)Man(a1-3)[GlcNAc(b1-4)][Neu5Ac(a2-3)Gal(b1-3)GlcNAc(b1-2)Man(a1-6)]Man(b1-4)GlcNAc(b1-4)GlcNAc
# Procedure, shortened: as §1
# [20] = target: Neu5Ac(a2-3)Gal(b1-3)GlcNAc(b1-2)Man(a1-3)[Neu5Ac(a2-3)Gal(b1-3)GlcNAc(b1-2)Man(a1-6)]Man(b1-4)GlcNAc(b1-4)GlcNAc
# Procedure, shortened: as §1
# [21] = target: Neu5Ac(a2-3)Gal(b1-3)GlcNAc(b1-2)[Neu5Ac(a2-3)Gal(b1-3)GlcNAc(b1-4)]Man(a1-6)[Neu5Ac(a2-3)Gal(b1-3)GlcNAc(b1-2)Man(a1-3)]Man(b1-4)GlcNAc(b1-4)GlcNAc
# Procedure, shortened: as §1
# [22] = target: Neu5Ac(a2-3)Gal(b1-3)GlcNAc(b1-3)Gal(b1-3)GlcNAc
# Procedure, shortened: as §1
# [23] = target: Neu5Ac(a2-3)Gal(b1-3)GlcNAc(b1-3)Gal(b1-4)GlcNAc
# Procedure, shortened: as §1
# [24] = target: Neu5Ac(a2-3)Gal(b1-3)GlcNAc(b1-3)GalNAc
# Procedure, shortened: as §1
# [25] = target: Neu5Ac(a2-3)Gal(b1-3)GlcNAc(b1-6)GalNAc
# Procedure, shortened: as §1
# [26] = target: Neu5Ac(a2-3)Gal(b1-3)GlcNAc6S
# Procedure, shortened: as §1
# [27] = target: Neu5Ac(a2-3)Gal(b1-3)[Fuc(a1-4)]GlcNAc
# Procedure, shortened: as §1
# [28] = target: Neu5Ac(a2-3)Gal(b1-3)[Fuc(a1-4)]GlcNAc(b1-3)Gal(b1-3)[Fuc(a1-4)]GlcNAc
# Procedure, shortened: as §1
# [29] = target: Neu5Ac(a2-3)Gal(b1-3)[Fuc(a1-4)]GlcNAc(b1-3)Gal(b1-4)[Fuc(a1-3)]GlcNAc
# Procedure, shortened: as §1
# [30] = target: Neu5Ac(a2-3)Gal(b1-3)[GlcNAc(b1-6)]GalNAc
# Procedure, shortened: as §1
# [31] = target: Neu5Ac(a2-3)Gal(b1-3)[Neu5Ac(a2-6)]GalNAc
# Procedure, shortened: as §1
# [32] = target: Neu5Ac(a2-3)Gal(b1-3)[Neu5Ac(a2-6)]GlcNAc(b1-3)[Fuc(a1-3)[Gal(b1-4)]GlcNAc(b1-6)]Gal(b1-4)Glc
# Procedure, shortened: as §1
# [33] = target: Neu5Ac(a2-3)Gal(b1-3)]Neu5Ac(a2-3)Gal(b1-4)]GlcNAc
# Procedure, shortened: as §1
# Neu5Ac(a2-3)Gal(b1-4)Glc = target: Neu5Ac(a2-3)Gal(b1-4)Glc
# Procedure, shortened: as §1
# [34] = target: Neu5Ac(a2-3)Gal(b1-4)GlcNAc
# Procedure, shortened: as §1
# [35] = target: Neu5Ac(a2-3)Gal(b1-4)GlcNAc(b1-2)Man
# Procedure, shortened: as §1
# [36] = target: Neu5Ac(a2-3)Gal(b1-4)GlcNAc(b1-2)Man(a1-3)[GlcNAc(b1-4)][Neu5Ac(a2-3)Gal(b1-4)GlcNAc(b1-2)Man(a1-6)]Man(b1-4)GlcNAc(b1-4)GlcNAc
# Procedure, shortened: as §1
# [37] = target: Neu5Ac(a2-3)Gal(b1-4)GlcNAc(b1-2)Man(a1-3)[Neu5Ac(a2-3)Gal(b1-4)GlcNAc(b1-2)Man(a1-6)]Man(b1-4)GlcNAc(b1-4)GlcNAc
# Procedure, shortened: as §1
# [38] = target: Neu5Ac(a2-3)Gal(b1-4)GlcNAc(b1-2)Man(a1-3)[Neu5Ac(a2-3)Gal(b1-4)GlcNAc(b1-2)Man(a1-6)]Man(b1-4)GlcNAc(b1-4)[Fuc(a1-6)]GlcNAc
# Procedure, shortened: as §1
# [39] = target: Neu5Ac(a2-3)Gal(b1-4)GlcNAc(b1-2)Man(a1-3)[Neu5Ac(a2-6)Gal(b1-4)GlcNAc(b1-2)Man(a1-6)]Man(b1-4)GlcNAc(b1-4)GlcNAc
# Procedure, shortened: as §1
binder,measurement,setting,value
B1,glycan array binding signal (z-score),[1],-0.437
same,glycan array binding signal (z-score),[2],-0.357
same,glycan array binding signal (z-score),[3],-0.386
same,glycan array binding signal (z-score),[4],-0.435
same,glycan array binding signal (z-score),[5],-0.387
same,glycan array binding signal (z-score),Man(a1-3)[Man(a1-6)]Man,-0.331
same,glycan array binding signal (z-score),[6],-0.235
same,glycan array binding signal (z-score),[7],-0.395
same,glycan array binding signal (z-score),[8],-0.348
same,glycan array binding signal (z-score),[9],-0.387
same,glycan array binding signal (z-score),[10],-0.378
same,glycan array binding signal (z-score),Man(a1-6)Man,-0.371
same,glycan array binding signal (z-score),Man(b1-4)GlcNAc,-0.331
same,glycan array binding signal (z-score),MurNAc(b1-4)GlcNAc,-0.42
same,glycan array binding signal (z-score),Neu5Ac(a2-3)Gal,-0.369
same,glycan array binding signal (z-score),[11],-0.346
same,glycan array binding signal (z-score),[12],-0.382
same,glycan array binding signal (z-score),[13],-0.191
same,glycan array binding signal (z-score),[14],-0.276
same,glycan array binding signal (z-score),[15],-0.312
same,glycan array binding signal (z-score),[16],-0.321
same,glycan array binding signal (z-score),[17],-0.303
same,glycan array binding signal (z-score),[18],-0.178
same,glycan array binding signal (z-score),[19],-0.387
same,glycan array binding signal (z-score),[20],-0.307
same,glycan array binding signal (z-score),[21],-0.362
same,glycan array binding signal (z-score),[22],-0.312
same,glycan array binding signal (z-score),[23],-0.371
same,glycan array binding signal (z-score),[24],0.208
same,glycan array binding signal (z-score),[25],-0.395
same,glycan array binding signal (z-score),[26],-0.304
same,glycan array binding signal (z-score),[27],-0.41
same,glycan array binding signal (z-score),[28],-0.333
same,glycan array binding signal (z-score),[29],-0.409
same,glycan array binding signal (z-score),[30],-0.175
same,glycan array binding signal (z-score),[31],-0.349
same,glycan array binding signal (z-score),[32],-0.356
same,glycan array binding signal (z-score),[33],-0.291
same,glycan array binding signal (z-score),Neu5Ac(a2-3)Gal(b1-4)Glc,-0.35
same,glycan array binding signal (z-score),[34],-0.324
same,glycan array binding signal (z-score),[35],-0.292
same,glycan array binding signal (z-score),[36],-0.384
same,glycan array binding signal (z-score),[37],-0.356
same,glycan array binding signal (z-score),[38],-0.315
same,glycan array binding signal (z-score),[39],-0.393
